Source: PubChem BioAssay AID1457 (National Center for Advancing Translational Sciences (NCATS), 2008)
Out of some 210,000 compounds screened, about 730 (0.35%) were called active. The inconclusive results got no clear call from the source; some entries with a clear call stand among them for comparison. Calls come from the whole dose curve; as a rule, active = well fitted inhibition curve with a large enough effect; inconclusive = small, poorly fitted or top-dose-only effect; inactive = no such curve, though single readings can be large or run the other way. Potencies beside an inconclusive call are fits to weak or partial responses and may not hold up.

Test: qHTS Assay for Identifying the Cell-Membrane Permeable IMPase Inhibitors: Potentiation with Lithium; note: nearly all actives have a fitted effect of over 50% in size;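 for activity, negative = IMPase inhibition: plate controls were basal vehicle for no effect and high inhibitor control for full effect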
Conditions: CHO-M1 cells, IP1 TR-FRET (IP-One), carbachol + lithium; series mostly up to 59.4 µM; activity, negative = IMPase inhibition: at the top concentration
Procedure, shortened: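 CHO-M1, 2000 cells/well, 16–30 h culture; cpd + low Li+, 30 min 37C; lysis with d2-IP1/Eu-anti-IP1 Ab, 10 min RT; TR-FRET 665/620 ratio and 620 channel; AC50 via Hill.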
Potency is the fitted concentration of half-maximal effect.

Row | Structure (SMILES) | activity, negative = IMPase inhibition | Potency
1 | Nc1ccccc1CCCC(=O)O | inactive: 2% | –
2 | Clc1ccc(Cn2ncc3c(NCc4ccccc4)ncnc32)c(Cl)c1 | inactive: 11.6% | –
3 | COc1cccc(CNC(=O)c2cc3oc4ccccc4c3n2C)c1OC | – | inconclusive: 25.1 µM [inhibitor, partial curve]
4 | Cc1ccc(OCCCCn2cnc3ccccc32)c(C)c1 | inactive: 8.89% [at 38.3 µM] | –
5 | C#CC(C)(CC)NC(=O)c1cc2cccc(CC=C)c2oc1=O (stereo not drawn) | – | inconclusive: 5.01 µM [inhibitor, single point]
6 | Cc1c(C(=O)OCC(=O)N2CC(C)OC(C)C2)oc2ccc(Br)cc12 (stereo not drawn) | – | inconclusive: 22.4 µM [inhibitor, single point]
7 | COc1cccc(-c2nnc3sc(-c4cccs4)nn23)c1 | – | inconclusive: 28.2 µM [inhibitor, single point]
8 | Cc1nc([N+](=O)[O-])c(Sc2nc3ccccc3[nH]2)n1Cc1ccccc1 | inactive: 0.0655% | –
9 | COc1ccc(C2NC(c3ccc(OC)cc3)C(c3ccccc3)C(=O)C2c2ccccc2)cc1 (stereo not drawn) | inactive: 6.48% | –
10 | COC(=O)c1ccc2nc(-c3ccc(S(C)(=O)=O)cc3)cn2c1 | – | active: 11.2 µM
11 | C/C(=N\Nc1ncc(Cl)cc1Cl)c1ccc(C#N)cc1 | inactive: 8.31% | –
12 | O=C(CSc1ncnc2c1oc1ccccc12)Nc1cccc(F)c1 | – | inconclusive: 28.2 µM [inhibitor, single point]
13 | O[C@@H](c1cc(-c2ccc(Cl)cc2)nc2ccccc12)C1CCCCN1 (stereo partly drawn) | inactive: -3.94% | –
14 | CC(=O)c1cn(CC(=O)Nc2ccc(C)c(C)c2)c2ccccc12 | – | inconclusive: 14.1 µM [inhibitor, single point]
15 | CCOc1ccc(CCNC(=O)Cn2ccc3ccccc3c2=O)cc1OCC | – | inconclusive: 15.8 µM [inhibitor, single point]
16 | O=c1oc2c(CN3CCOCC3)c(O)c(Cl)cc2c2c1CCC2 | – | inconclusive: 20 µM [inhibitor, single point]
17 | CCn1c(O)c(N=NC(=O)CNc2cccc(C)c2)c2ccccc21 | inactive: 7.46% | –
18 | Cc1cc(C)c2cc(CN(CCO)C(=O)Nc3ccc(Cl)cc3)c(=O)[nH]c2c1 | – | inconclusive: 28.2 µM [inhibitor, single point]
19 | CC(C)N1C(=O)CCC1C(=O)NCc1ccco1 (stereo not drawn) | inactive: -6.86% | –

Row | Structure (SMILES) | activity, negative = IMPase inhibition | Potency
20 | COc1ccc(Nc2nnc(-c3ccc(C)cc3)c3ccccc23)cc1C(=O)N1CCCCC1 | inactive: 5.46% | –
21 | COc1ccc(-c2noc(-c3cc4ccccc4oc3=O)n2)cc1 | – | inconclusive: 28.2 µM [inhibitor, single point]
22 | Cc1cccn2c(=O)c3cc(C(=O)N4COCC4(C)C)sc3nc12 | – | inconclusive: 25.1 µM [inhibitor, single point]
23 | O=C(N/N=C\c1ccc(-c2ccc([N+](=O)[O-])cc2)o1)C1COc2ccccc2O1 (stereo not drawn) | – | inconclusive: 15.8 µM [inhibitor, partial curve]
24 | CCn1c(=O)c(C(=O)Nc2ccsc2C(=O)OC)c(O)c2ccccc21 | – | inconclusive: 17.8 µM [inhibitor, single point]
25 | COc1ccc(-c2ccnc3c(C#N)cnn23)cc1 | – | inconclusive: 14.1 µM [inhibitor, partial curve]
26 | CN1C(=O)c2cccc(NCCCN3C(=O)c4ccccc4C3=O)c2C1=O | – | inconclusive: 28.2 µM [inhibitor, single point]
27 | Cc1ccc(NC(=O)c2scc3c2CCCC3)cc1 | inactive: 1.26% | –
28 | Fc1cc(F)c2nc(Nc3nc4c(F)cccc4s3)sc2c1 | – | inconclusive: 28.2 µM [inhibitor, single point]
29 | O=C(O)c1cc2ccc3ccccc3c2oc1=O | – | inconclusive: 10 µM [inhibitor, partial curve]
30 | CC(=O)c1ccc(Nc2ncnc3c2oc2ccccc23)cc1 | – | inconclusive: 28.2 µM [inhibitor, single point]
31 | C/C(CC(=O)Nc1ccccc1)=N\NC(=O)COc1ccc(C)cc1Br | – | inconclusive: 5.01 µM [inhibitor, single point]
32 | COc1ccc(Nc2nc(Cl)nc(N3CCN(c4ccc(OC)cc4)CC3)n2)cc1 | inactive: 29.4% | –
33 | COCCCn1c(N)c(-c2nc3ccccc3n2C)c2nc3ccccc3nc21 | – | inconclusive: 20 µM [inhibitor, single point]
34 | COc1ccccc1NC(=O)CCSCCC(=O)Nc1ccccc1OC | inactive: -1.08% | –
35 | O=C(c1ccccc1F)N1CCN(Cc2cccc(Cl)c2)CC1 | inactive: -2.72% | –
36 | C=CCn1c(SCC(=O)Nc2ccc(F)cc2)nc2cc(C(=O)O)ccc2c1=O | inactive: 2.96% | –
37 | C=CCN(CC=C)S(=O)(=O)c1ccc(C(=O)Nc2sc3c(c2C(N)=O)CCCCC3)cc1 | – | active: 10 µM
38 | CN(C)c1cc[n+](CC(=O)Nc2ccc([N+](=O)[O-])cc2Cl)cc1 | inactive: 22.3% [at 38.3 µM] | –
